Test results taken from the supplement of paper PMC8728848.
The list shows a part of the results.

Columns and labels:
Assay in all cases: glycan array binding signal (z-score within array); higher = stronger binding
Settings in all cases: glycan notation: IUPAC condensed, linker removed
[1] = biological target: Man(a1-2)Man(a1-3)[Man(a1-6)]Man(a1-6)[Man(a1-2)Man(a1-3)]Man(b1-4)GlcNAc(b1-4)GlcNAc
Summary of the method: (§1)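 From the Consortium for Functional Glycomics database, 3228 arrays were curated, keeping only those whose protein sequence was available. Binding is given as a within-array Z-score averaged across arrays sharing a protein sequence and across linkers. Negative Z-scores can be read as non-binding.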

[2] = biological target: Man(a1-2)Man(a1-6)[Man(a1-3)]Man(a1-6)[Man(a1-2)Man(a1-2)Man(a1-3)]Man
Summary of the method: as §1

[3] = biological target: Man(a1-2)Man(a1-6)[Man(a1-3)]Man(a1-6)[Man(a1-2)Man(a1-2)Man(a1-3)]Man(b1-4)GlcNAc(b1-4)GlcNAc
Summary of the method: as §1

[4] = biological target: Man(a1-3)[Man(a1-6)]Man
Summary of the method: as §1

[5] = biological target: Man(a1-3)[Man(a1-6)]Man(a1-6)[Man(a1-2)Man(a1-3)]Man(b1-4)GlcNAc(b1-4)GlcNAc
Summary of the method: as §1

[6] = biological target: Man(a1-3)[Man(a1-6)]Man(a1-6)[Man(a1-3)]Man
Summary of the method: as §1

[7] = biological target: Man(a1-3)[Man(a1-6)]Man(a1-6)[Man(a1-3)]Man(b1-4)GlcNAc(b1-4)GlcNAc
Summary of the method: as §1

[8] = biological target: Man(a1-3)[Man(a1-6)]Man(b1-4)GlcNAc(b1-4)GlcNAc
Summary of the method: as §1

[9] = biological target: Man(a1-6)Man
Summary of the method: as §1

[10] = biological target: Man(b1-4)GlcNAc
Summary of the method: as §1

[11] = biological target: Neu5Ac(a2-3)Gal
Summary of the method: as §1

[12] = biological target: Neu5Ac(a2-3)Gal(b1-3)GalNAc
Summary of the method: as §1

[13] = biological target: Neu5Ac(a2-3)Gal(b1-3)GalNAc(b1-3)Gal(a1-4)Gal(b1-4)Glc
Summary of the method: as §1

[14] = biological target: Neu5Ac(a2-3)Gal(b1-3)GalNAc(b1-4)[Neu5Ac(a2-3)]Gal(b1-4)Glc
Summary of the method: as §1

[15] = biological target: Neu5Ac(a2-3)Gal(b1-3)GalNAc(b1-4)[Neu5Ac(a2-8)Neu5Ac(a2-3)]Gal(b1-4)Glc
Summary of the method: as §1

[16] = biological target: Neu5Ac(a2-3)Gal(b1-3)GalNAc6S
Summary of the method: as §1

[17] = biological target: Neu5Ac(a2-3)Gal(b1-3)GlcNAc
Summary of the method: as §1

[18] = biological target: Neu5Ac(a2-3)Gal(b1-3)GlcNAc(b1-3)Gal(b1-3)GlcNAc
Summary of the method: as §1

[19] = biological target: Neu5Ac(a2-3)Gal(b1-3)GlcNAc(b1-3)Gal(b1-4)GlcNAc
Summary of the method: as §1

[20] = biological target: Neu5Ac(a2-3)Gal(b1-3)GlcNAc(b1-3)GalNAc
Summary of the method: as §1

[21] = biological target: Neu5Ac(a2-3)Gal(b1-3)GlcNAc6S
Summary of the method: as §1

[22] = biological target: Neu5Ac(a2-3)Gal(b1-3)[Fuc(a1-4)]GlcNAc
Summary of the method: as §1

[23] = biological target: Neu5Ac(a2-3)Gal(b1-3)[Fuc(a1-4)]GlcNAc(b1-3)Gal(b1-3)[Fuc(a1-4)]GlcNAc
Summary of the method: as §1

[24] = biological target: Neu5Ac(a2-3)Gal(b1-3)[Fuc(a1-4)]GlcNAc(b1-3)Gal(b1-4)[Fuc(a1-3)]GlcNAc
Summary of the method: as §1

[25] = biological target: Neu5Ac(a2-3)Gal(b1-3)[Neu5Ac(a2-3)Gal(b1-4)]GlcNAc
Summary of the method: as §1

[26] = biological target: Neu5Ac(a2-3)Gal(b1-3)[Neu5Ac(a2-6)]GalNAc
Summary of the method: as §1

[27] = biological target: Neu5Ac(a2-3)Gal(b1-4)Glc
Summary of the method: as §1

[28] = biological target: Neu5Ac(a2-3)Gal(b1-4)GlcNAc
Summary of the method: as §1

[29] = biological target: Neu5Ac(a2-3)Gal(b1-4)GlcNAc(b1-2)Man(a1-3)[GlcNAc(b1-2)Man(b1-4)GlcNAc(b1-2)Man(a1-6)]Man(b1-4)GlcNAc(b1-4)GlcNAc
Summary of the method: as §1

[30] = biological target: Neu5Ac(a2-3)Gal(b1-4)GlcNAc(b1-2)Man(a1-3)[Neu5Ac(a2-6)Gal(b1-4)GlcNAc(b1-2)Man(a1-6)]Man(b1-4)GlcNAc(b1-4)GlcNAc
Summary of the method: as §1

[31] = biological target: Neu5Ac(a2-3)Gal(b1-4)GlcNAc(b1-3)Gal
Summary of the method: as §1

[32] = biological target: Neu5Ac(a2-3)Gal(b1-4)GlcNAc(b1-3)Gal(b1-3)GlcNAc
Summary of the method: as §1

[33] = biological target: Neu5Ac(a2-3)Gal(b1-4)GlcNAc(b1-3)Gal(b1-4)GlcNAc
Summary of the method: as §1

[34] = biological target: Neu5Ac(a2-3)Gal(b1-4)GlcNAc(b1-3)Gal(b1-4)GlcNAc(b1-3)Gal(b1-4)GlcNAc
Summary of the method: as §1

[35] = biological target: Neu5Ac(a2-3)Gal(b1-4)GlcNAc(b1-3)Gal(b1-4)[Fuc(a1-3)]GlcNAc
Summary of the method: as §1

[36] = biological target: Neu5Ac(a2-3)Gal(b1-4)GlcNAc(b1-3)GalNAc
Summary of the method: as §1

[37] = biological target: Neu5Ac(a2-3)Gal(b1-4)GlcNAc(b1-6)[Gal(b1-3)]GalNAc
Summary of the method: as §1

[38] = biological target: Neu5Ac(a2-3)Gal(b1-4)GlcNAc(b1-6)[Neu5Ac(a2-3)Gal(b1-3)]GalNAc
Summary of the method: as §1

[39] = biological target: Neu5Ac(a2-3)Gal(b1-4)GlcNAc6S
Summary of the method: as §1

[40] = biological target: Neu5Ac(a2-3)Gal(b1-4)[Fuc(a1-3)]GlcNAc
Summary of the method: as §1

[41] = biological target: Neu5Ac(a2-3)Gal(b1-4)[Fuc(a1-3)]GlcNAc(b1-3)Gal
Summary of the method: as §1

[42] = biological target: Neu5Ac(a2-3)Gal(b1-4)[Fuc(a1-3)]GlcNAc(b1-3)Gal(b1-4)GlcNAc
Summary of the method: as §1

[43] = biological target: Neu5Ac(a2-3)Gal(b1-4)[Fuc(a1-3)]GlcNAc(b1-3)Gal(b1-4)[Fuc(a1-3)]GlcNAc(b1-3)Gal(b1-4)[Fuc(a1-3)]GlcNAc
Summary of the method: as §1

[44] = biological target: Neu5Ac(a2-3)Gal(b1-4)[Fuc(a1-3)]GlcNAc(b1-3)GalNAc
Summary of the method: as §1

[45] = biological target: Neu5Ac(a2-3)Gal(b1-4)[Fuc(a1-3)]GlcNAc(b1-6)[Gal(b1-3)]GalNAc
Summary of the method: as §1

[46] = biological target: Neu5Ac(a2-3)Gal(b1-4)[Fuc(a1-3)]GlcNAc6S
Summary of the method: as §1

[47] = biological target: Neu5Ac(a2-3)Gal6S(b1-4)GlcNAc
Summary of the method: as §1

[48] = biological target: Neu5Ac(a2-3)Gal6S(b1-4)[Fuc(a1-3)]GlcNAc
Summary of the method: as §1

[49] = biological target: Neu5Ac(a2-3)GalNAc
Summary of the method: as §1

[50] = biological target: Neu5Ac(a2-3)GalNAc(b1-4)GlcNAc
Summary of the method: as §1

B1: SCA (Schizophyllum commune) (protein)
chain: MGIDQGVYLITNAGSGTAATLKDGYVKGWERIKGKEQLNQLWFVKSVKTSASDPGYAAFNLATNKVLDLEKGLADRGTPILGWDYHEGDNQHWVIKKQADGKYYKIQSVKTQTFVDLNNGGKDNGTKIQGWVGSWDETNSHQRWVFNQFSATGSRIKSILDTHPKIHGKVIVEWPDRIYFTPDQYIFEAIWAKTGLADIKPRDPLFQSEAYEKVFKGWVVSRAQEIIKVDGFDILVGSLSLVEKSTQKIKVLDVSVRTSDDKSPDLSQIVFFDPESGRTLVDIPEGYEVNSVII
glycan array binding signal (z-score) [1]: -0.16 | glycan array binding signal (z-score) [2]: -0.156 | glycan array binding signal (z-score) [3]: -0.163 | glycan array binding signal (z-score) [4]: -0.16 | glycan array binding signal (z-score) [5]: -0.158 | glycan array binding signal (z-score) [6]: -0.162 | glycan array binding signal (z-score) [7]: -0.164 | glycan array binding signal (z-score) [8]: -0.162 | glycan array binding signal (z-score) [9]: -0.162 | glycan array binding signal (z-score) [10]: -0.161 | glycan array binding signal (z-score) [11]: -0.147 | glycan array binding signal (z-score) [12]: -0.136 | glycan array binding signal (z-score) [13]: -0.155 | glycan array binding signal (z-score) [14]: -0.15 | glycan array binding signal (z-score) [15]: -0.16 | glycan array binding signal (z-score) [16]: -0.16 | glycan array binding signal (z-score) [17]: -0.163 | glycan array binding signal (z-score) [18]: -0.162 | glycan array binding signal (z-score) [19]: -0.155 | glycan array binding signal (z-score) [20]: -0.159 | glycan array binding signal (z-score) [21]: -0.162 | glycan array binding signal (z-score) [22]: -0.16 | glycan array binding signal (z-score) [23]: -0.151 | glycan array binding signal (z-score) [24]: -0.16 | glycan array binding signal (z-score) [25]: -0.16 | glycan array binding signal (z-score) [26]: 0.114 | glycan array binding signal (z-score) [27]: -0.159 | glycan array binding signal (z-score) [28]: -0.157 | glycan array binding signal (z-score) [29]: -0.13 | glycan array binding signal (z-score) [30]: -0.162 | glycan array binding signal (z-score) [31]: -0.162 | glycan array binding signal (z-score) [32]: -0.157 | glycan array binding signal (z-score) [33]: -0.16 | glycan array binding signal (z-score) [34]: -0.152 | glycan array binding signal (z-score) [35]: -0.164 | glycan array binding signal (z-score) [36]: -0.157 | glycan array binding signal (z-score) [37]: -0.162 | glycan array binding signal (z-score) [38]: -0.157 | glycan array binding signal (z-score) [39]: -0.161 | glycan array binding signal (z-score) [40]: -0.163 | glycan array binding signal (z-score) [41]: -0.164 | glycan array binding signal (z-score) [42]: -0.159 | glycan array binding signal (z-score) [43]: -0.154 | glycan array binding signal (z-score) [44]: -0.15 | glycan array binding signal (z-score) [45]: -0.159 | glycan array binding signal (z-score) [46]: -0.158 | glycan array binding signal (z-score) [47]: -0.157 | glycan array binding signal (z-score) [48]: -0.162 | glycan array binding signal (z-score) [49]: -0.16 | glycan array binding signal (z-score) [50]: -0.162
